Source: patent US8613929B2, “Methods and compositions for targeting agents into and across the blood-brain barrier and other endothelial cell microvascular barriers” (priority 2003, dated 2013)

Molecular target: LPSS14 (DTR) (Bos taurus, UniProt E1BIN8)
Format: cell-based, bovine

Sequence of LPSS14 (DTR) (E1BIN8 24-208 limits assumed): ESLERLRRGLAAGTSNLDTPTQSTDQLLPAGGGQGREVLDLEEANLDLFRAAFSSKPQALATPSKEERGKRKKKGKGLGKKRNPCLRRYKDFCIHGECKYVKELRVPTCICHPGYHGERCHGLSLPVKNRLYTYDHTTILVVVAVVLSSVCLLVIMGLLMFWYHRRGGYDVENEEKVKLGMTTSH

soluble HB-EGF: soluble heparin-binding EGF-like growth factor, non-competitive antagonist for the DTR by binding to the receptor-binding domain of DT
toxic effect of DT on BCEC-Astrocytes cocultures after preincubation of DT (100 ng/ml DT preincubated 1 hour with soluble HB-EGF 0.1-10 microgram/ml, apical (FIG. 7)): decreased in a concentration dependent manner
DT-induced toxic effect on BCEC (100 ng/ml DT preincubated with 10 microgram/ml of soluble HB-EGF, even after an overnight assessment): completely prevented
